Screen size: about 370,000 compounds; about 150 (0.041%) were called active. Inconclusive results, whose numbers are uncertain, are shown with a selection of clear calls. Calls come from the whole dose curve; as a rule, active = well fitted inhibition curve with a large enough effect; inconclusive = small, poorly fitted or top-dose-only effect; inactive = flat fitted curve, though single readings scatter. No potency is given beside an inconclusive call; the fits are too rough.
Biological target: Beta-lactamase (Escherichia coli (strain K12)) (UniProt P00811)
Chain of UniProt P00811 (P00811 whole entry, looked up): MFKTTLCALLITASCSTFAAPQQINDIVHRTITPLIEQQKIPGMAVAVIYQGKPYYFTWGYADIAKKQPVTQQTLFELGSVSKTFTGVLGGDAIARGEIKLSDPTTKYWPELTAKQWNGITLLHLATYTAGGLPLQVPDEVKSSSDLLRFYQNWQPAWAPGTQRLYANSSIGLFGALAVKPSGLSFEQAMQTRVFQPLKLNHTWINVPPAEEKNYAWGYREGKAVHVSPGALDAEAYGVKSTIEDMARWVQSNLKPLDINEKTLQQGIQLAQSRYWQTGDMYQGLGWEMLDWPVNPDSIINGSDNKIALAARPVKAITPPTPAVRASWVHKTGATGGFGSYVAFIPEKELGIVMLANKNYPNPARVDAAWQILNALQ
Assay: qHTS Inhibitors of AmpC Beta-Lactamase (assay with detergent); note: nearly all actives have a fitted effect of over 25% in size
Settings: AmpC hydrolysis of nitrocefin, absorbance 480 nm, 0.01% Triton; series mostly up to 114 µM
How it was run: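 AmpC (5.3 nM in the dispensed reagent) in 20 mM phosphate pH 7.0 with 0.01% (detergent screen) or 0.0001% Triton X-100 was preincubated with compounds for 15 min at room temperature. Nitrocefin was then added from an 800 uM solution, and hydrolysis was followed at 480 nm.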
Potency is the fitted concentration of half-maximal effect; tags give direction and shape of the fitted curve.

Structure (SMILES)	Potency
CC(C)(CO)CNC(=O)CC1C(=O)NCCN1CC(c1ccccc1)c1ccccc1 (stereo unspecified)	inconclusive [inhibitor, single point]
CCSC1=C(C#N)C(c2ccc(F)cc2)CC(=O)N1 (stereo unspecified)	inconclusive [inhibitor, full curve, poor fit]
CCn1cc(C(=O)NCCCN(CC(C)C)CC(C)C)c(=O)c2cc(S(=O)(=O)N3CCc4ccccc4C3)ccc21	inactive
COC(=O)/C(=C/c1ccc(OC)cc1)NC(=O)c1ccco1	inconclusive [inhibitor, full curve, poor fit]
COC(=O)c1ccn(CC(=O)NC2CCCCC2)n1	inconclusive [inhibitor, full curve, poor fit]
COc1cc(CO)cc(Br)c1OCc1cccnc1	inconclusive [inhibitor, full curve, poor fit]
CCOc1ccc(C2c3c(oc4ccc(C)cc4c3=O)C(=O)N2c2nc(C)c(C)s2)cc1OC (stereo unspecified)	inactive
CN(C)C(=O)c1ccc(NC(=O)COc2cccc(Oc3ccccc3)c2)cc1	inconclusive [inhibitor, single point]
Cc1[nH]c(C)c(S(=O)(=O)N2CCCCC2)c1C(=O)N1CCCC1	inconclusive [inhibitor, full curve, poor fit]
C=CCN(CC=C)CCOc1ccccc1F	inconclusive [inhibitor, full curve, poor fit]
Cc1cc(N2CCN(C(=O)c3ccco3)CC2)n2ncc(-c3ccccc3)c2n1	inconclusive [inhibitor, full curve, poor fit]
COc1ccc(-c2cc(C(F)(F)F)nc(S(=O)(=O)CCC(=O)N3CCOCC3)n2)cc1	inactive
COc1cc(SC)ccc1C(=O)N(Cc1ccccc1)c1ccccn1	inconclusive [inhibitor, single point]
CN(Cc1ccccc1)c1oc(-c2ccco2)nc1C#N	inconclusive [inhibitor, full curve, poor fit]
Cc1nc(C(=O)NCC(=O)c2ccccc2)c(C(F)(F)F)o1	inconclusive [inhibitor, single point]
N#CCCn1cc(/C=N/O)c(-c2ccc(-c3ccccc3)cc2)n1	inconclusive [inhibitor, full curve, poor fit]
CCOc1cccc(-c2nnc3sc(C4CCCCC4)nn23)c1	inconclusive [inhibitor, partial curve]
Cc1ccc(C2(c3noc(CN(C)Cc4cnn(C)c4)n3)CCCC2)cc1	inactive
Cc1ccc(-c2noc(CCC(=O)Nc3ccccc3C)n2)cc1	inconclusive [inhibitor, full curve, poor fit]
Cc1ccc(SCCC(=O)NC(C)(C)C)cc1	inactive
O=C(CCn1c(SCC(=O)c2ccccc2)nc2ccccc2c1=O)NCc1ccc(F)cc1	inconclusive [inhibitor, single point]
Oc1ccc(-c2csc(-c3ccccc3)n2)cc1O	inactive

Structure (SMILES)	Potency
Cn1c(C(=O)N2CCC(C(=O)N3CCN(Cc4ccc5c(c4)OCO5)CC3)CC2)cc2sccc21	inconclusive [inhibitor, full curve, poor fit]
CC(C)N1CSC(=S)N(Cc2ccccc2)C1	inactive
C/C(=N\Nc1ncc(Cl)cc1Cl)c1ccc(OC(F)F)cc1	inconclusive [inhibitor, partial curve, poor fit]
O=C(c1ccc(-n2cccn2)cc1)N1CCc2c([nH]c3ccccc23)C1c1ccccn1 (stereo unspecified)	inactive
COC(=O)c1sccc1NC(=O)Nc1ccc(C)c(C)c1	inactive
CCC(=O)N1CCc2cc(S(=O)(=O)N3CCN(c4cc(Cl)ccc4C)CC3)ccc21	inconclusive [inhibitor, full curve, poor fit]
O=S(=O)(NCc1cccnc1)c1ccc(Br)s1	inconclusive [inhibitor, full curve, poor fit]
CCS(=O)(=O)N1CCN(C(=O)COc2ccc(-c3ccccc3)cc2)CC1	inactive
COc1ccc(CCNC(=O)c2c(C)nc3ccccn23)cc1	inconclusive [inhibitor, full curve, poor fit]
CCc1ccc2oc(-c3cc(N)ccc3Cl)nc2c1	inconclusive [inhibitor, full curve, poor fit]
Cc1ccnc(SCc2cc(=O)c(OC(=O)c3cc([N+](=O)[O-])ccc3Cl)co2)n1	inconclusive [inhibitor, full curve, poor fit]
CCCC(=O)Nc1ccccc1N1CCN(C(=O)c2ccccc2)CC1	inconclusive [inhibitor, partial curve, poor fit]
CCOC(=O)c1ccc(N2C=C(C(=O)OC)C(c3ccc(OC)c(O)c3)C(C(=O)OC)=C2)cc1	inconclusive [inhibitor, single point]
COc1ccc(-n2c(=O)c3ccccc3n(CC(=O)NC3CCCCC3)c2=O)cc1	inconclusive [inhibitor, single point]
C#CCOc1ccc(C2C(C(=O)OC)=C(C)NC3=C2C(=O)c2ccccc23)cc1OCC (stereo unspecified)	inactive
Cn1c(=O)c2c(-c3ccccc3)n(CCCN3CCOCC3)cc2n(C)c1=O	inconclusive [inhibitor, single point]
COC(=O)c1ccccc1NC(=O)c1cc(-c2ccc(C)cc2)on1	inconclusive [inhibitor, single point]
Cc1nc2ccc(S(=O)(=O)NCC(=O)NCCc3ccc(Cl)cc3)cc2s1	inconclusive [inhibitor, full curve, poor fit]
Cn1c(SCc2ccc(F)cc2Cl)nc2ccccc2c1=O	inconclusive [inhibitor, full curve, poor fit]
CCc1ccc(NC(=O)C(Cc2ccccc2)NS(=O)(=O)c2ccc3c(c2)CCN3C(C)=O)cc1 (stereo unspecified)	inactive
CCCCN(C(=O)c1ccc2c(c1)OCCO2)c1c(N)n(CCCC)c(=O)[nH]c1=O	inconclusive [inhibitor, full curve, poor fit]
CC(C)c1nnc(NC(=O)c2sc3ccccc3c2Cl)s1	inconclusive [inhibitor, partial curve]

Structure (SMILES)	Potency
CC(CC1C(C#N)=C(N)OC2=C1C(=O)CCC2)c1ccccc1 (stereo unspecified)	inactive
COc1ccc(-n2cnc3sc(-c4ccccc4)cc3c2=O)cc1	inconclusive [inhibitor, full curve]
Cc1nc2ccccc2c(=O)n1-c1cccc(NS(=O)(=O)c2ccccc2)c1	inconclusive [inhibitor, full curve, poor fit]
COCc1cc(C)nc2sc(C(=O)NCCO)c(-n3cccc3)c12	inconclusive [inhibitor, single point]
O=C(Nc1ccc(Cl)cc1Cl)c1ccc(-c2ccccc2)cc1	inactive
COc1ccc(OC)c(NC(=O)c2cc(S(=O)(=O)NCc3ccco3)ccc2F)c1	inconclusive [inhibitor, partial curve]
COc1ccccc1NC(=S)N(Cc1ccccc1)Cc1cccnc1	inconclusive [inhibitor, partial curve]
CC(=O)Nc1sc(N/N=C/c2ccc(O)cc2)nc1-c1ccc(C)cc1	inactive
Cc1ccnc(NC(=O)c2c(-c3ccccc3Cl)noc2C)c1	inconclusive [inhibitor, partial curve]
CS(=O)(=O)N1N=C(c2ccccc2)CC1c1ccc2c(c1)OCO2 (stereo unspecified)	inconclusive [inhibitor, partial curve, poor fit]
Cc1ccccc1-n1c(SCC(=O)N/N=C/c2sccc2C)nc2ccccc2c1=O	inconclusive [inhibitor, full curve, poor fit]
CC(=O)Nc1ccc(NC(=O)c2sc3nc4n(c(=O)c3c2C)CCCCC4)cc1	inconclusive [inhibitor, partial curve, poor fit]
Brc1ccc(CSc2ccc3nnc(-c4ccccn4)n3n2)cc1	inconclusive [inhibitor, full curve, poor fit]
Cc1c(C(=O)N2CCc3ccccc32)oc2ccccc12	inconclusive [inhibitor, single point]
COc1ccc(S(=O)(=O)NCC(c2ccco2)S(=O)(=O)c2ccc(C)cc2)cc1C (stereo unspecified)	inactive
CC(C)(C)NC(=O)CSc1nnc(NC(=O)CCc2ccccc2)s1	inconclusive [inhibitor, partial curve]
N#Cc1cc2cc3c(cc2nc1N1CCOCC1)OCO3	inconclusive [inhibitor, full curve]
Cc1ccc(S(=O)(=O)CCc2nc3ccccc3s2)cc1C	inconclusive [inhibitor, single point]
COc1ccccc1NS(=O)(=O)c1cc(NC(=O)c2ccc3ccccc3n2)ccc1Cl	inconclusive [inhibitor, full curve]
CCC(Oc1ccccc1)C(=O)Nc1cc(C(F)(F)F)ccc1N1CCOCC1 (stereo unspecified)	inconclusive [inhibitor, full curve, poor fit]
O=C1c2ccccc2C(=O)N1c1ccc(Cc2ccncc2)cc1	inactive
Cn1ccnc1SCC(=O)c1ccc(C#N)cc1	inconclusive [inhibitor, full curve, poor fit]

Source: PubChem BioAssay AID485294 (National Center for Advancing Translational Sciences (NCATS), 2010)
